Assay results reported in publication PMC10405735 (Frontiers in Immunology, 2023).

Molecular target: T1, hCXCL12, unlabeled (human, UniProt P48061 in part)
T1 construct: CXCL12, human; also called X12
Assay: flow cytometry on cells; competition binding at 4°C: 300.19 cells expressing mGPR182 or hGPR182 with 3 nM fluorescent chemokine and increasing concentrations of its unlabeled counterpart, 45 min
Conditions: one partner purified

B1: human GPR182 (hGPR182), expressed from hGPR182 T2A GFP in 300.19 pre-B cells (receptor, UniProt O15218 1-404, looked up)
chain: MSVKPSWGPGPSEGVTAVPTSDLGEIHNWTELLDLFNHTLSECHVELSQSTKRVVLFALYLAMFVVGLVENLLVICVNWRGSGRAGLMNLYILNMAIADLGIVLSLPVWMLEVTLDYTWLWGSFSCRFTHYFYFVNMYSSIFFLVCLSVDRYVTLTSASPSWQRYQHRVRRAMCAGIWVLSAIIPLPEVVHIQLVEGPEPMCLFMAPFETYSTWALAVALSTTILGFLLPFPLITVFNVLTACRLRQPGQPKSRRHCLLLCAYVAVFVMCWLPYHVTLLLLTLHGTHISLHCHLVHLLYFFYDVIDCFSMLHCVINPILYNFLSPHFRGRLLNAVVHYLPKDQTKAGTCASSSSCSTQHSIIITKGDSQPAAAAPHPEPSLSFQAHHLLPNTSPISPTQPLTPS
notes: GPR182, human; Expressed fused via a self-cleaving T2A peptide to GFP (backbone pME-Cas9-T2A-GFP, Addgene 63155); split post-translationally; also called ACKR5 (proposed); source: 300.19 mouse pre-B cells, stably transfected, on cells
Kd: 0.05 µM
